Data as given in the supplement of paper PMC10126150.
Sequences with one replicate were seen in a single cluster, so their values are uncertain.

system: ATP; experiment: switch fluorescence ratio, 500 uM ATP over buffer (Cy3 cluster intensity, sum of 5 cycles each) (fold (ratio)); higher = stronger signal-on switching upon ATP binding; sequences stand for … in TCGTCGGCAGCGTCAGATGTGTATAAGAGACAGTTTTTTTTTTTTTTTTTTTTTTTTT…TC; conditions: aptamer strand: ATP DNA aptamer (quencher-CACCTGGGGGAGTATTGCGGAGGAAGG + anchor), 100 nM annealed; ATP concentration: 500 uM; one replicate
Procedure, shortened: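 Clusters carrying Cy3-labelled switching strands on a modified Illumina MiSeq flow-cell were annealed to 100 nM quencher-labelled ATP aptamer and imaged in selection buffer. They were imaged again after 15 min with 500 uM ATP at 22 °C, over five buffer/ATP cycles with NaOH stripping and re-annealing in between. For each cluster, the fluorescence ratio is the summed Cy3 intensity of the target cycles divided by that of the buffer cycles, averaged per switch-domain sequence. Clusters outside 100-1000 RFU were left out.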
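Further: ATP exposure 15 min at 22 °C before imaging.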

| Sequence | switch fluorescence ratio |
| --- | --- |
| TTCACAGTCT | 1.21 |
| TTCACAGTTA | 0.988 |
| TTCACCGATA | 1.06 |
| TTCACGAGCT | 1.03 |
| TTCACTCATA | 0.99 |
| TTCACTTCT | 1.02 |
| TTCACTTTGT | 0.95 |
| TTCAGACTCG | 1.05 |
| TTCAGCAAGT | 2.55 |
| TTCAGCAGGA | 0.984 |
| TTCAGCAGTA | 1.06 |
| TTCAGCGGAA | 1.04 |
| TTCAGGGTGC | 1.08 |
| TTCAGGTAGA | 1.09 |
| TTCAGTCGCA | 1.01 |
| TTCAGTCTCG | 0.982 |
| TTCATATCCA | 1 |
| TTCATCAACG | 1.05 |
| TTCATCAGTC | 1.02 |
| TTCATGAAGT | 0.987 |
| TTCATTTATA | 1.08 |
| TTCCAAGGCC | 0.96 |

| Sequence | switch fluorescence ratio |
| --- | --- |
| TTCCAATAAC | 1.26 |
| TTCCAATGGA | 0.987 |
| TTCCAGGTCA | 1.04 |
| TTCCATCGAC | 1.09 |
| TTCCATGCAT | 1.12 |
| TTCCATTTAT | 1.04 |
| TTCCCAGGAC | 2 |
| TTCCCGAGGG | 1.01 |
| TTCCCGGT | 1 |
| TTCCCTGGAG | 1.06 |
| TTCCCTTGCA | 1.07 |
| TTCCGAATGA | 1.16 |
| TTCCGCTAGG | 1.08 |
| TTCCGGACCT | 1.15 |
| TTCCGGTATA | 1.11 |
| TTCCGGTCTA | 1.05 |
| TTCCGTCATA | 1.18 |
| TTCCGTGGGT | 1.01 |
| TTCCTAGGC | 1.12 |
| TTCCTAGTGG | 0.989 |
| TTCCTGGAGC | 1.05 |
| TTCCTTAATA | 0.993 |

| Sequence | switch fluorescence ratio |
| --- | --- |
| TTCCTTGTCA | 1.01 |
| TTCGAAATCA | 1.15 |
| TTCGAAGTGG | 1.29 |
| TTCGAATAGG | 1 |
| TTCGACAAGC | 1.16 |
| TTCGACGGAT | 1.07 |
| TTCGAGACGC | 0.931 |
| TTCGAGCTTT | 1.03 |
| TTCGATGGCA | 1.09 |
| TTCGCACGGG | 1.03 |
| TTCGCCACCG | 1.01 |
| TTCGCGTAGG | 0.998 |
| TTCGCTTCCA | 1.01 |
| TTCGCTTCTG | 0.991 |
| TTCGCTTGGA | 0.987 |
| TTCGGAAAGT | 0.964 |
| TTCGGAACAC | 1.78 |
| TTCGGACGG | 1 |
| TTCGGACGTC | 0.951 |
| TTCGGAGGAA | 1.28 |
| TTCGGATACA | 0.992 |
| TTCGGCCGTA | 1 |

| Sequence | switch fluorescence ratio |
| --- | --- |
| TTCGGGAAAG | 0.965 |
| TTCGGGACTC | 1.06 |
| TTCGGGAGTA | 0.955 |
| TTCGGGCACA | 1.04 |
| TTCGGGTAAC | 0.988 |
| TTCGGTGTTC | 1.03 |
| TTCGGTTGCT | 0.948 |
| TTCGTAAACT | 1.08 |
| TTCGTACATA | 1.07 |
| TTCGTAGGCT | 0.99 |
| TTCGTCTAA | 0.974 |
| TTCGTCTTGC | 1.02 |
| TTCGTGTCTA | 1.01 |
| TTCGTTCAAG | 1.01 |
| TTCTAAGAGG | 1.02 |
| TTCTAAGTAT | 1.05 |
| TTCTAAGTGG | 0.967 |
| TTCTAGGGG | 0.992 |
| TTCTAGGTAC | 4.33 |
